# In all, about 410,000 compounds went through this assay and about 6,400 (1.6%) were called active. This list was built around the results that the source calls inconclusive (neither active nor inactive); the mix of calls is not that of the screen. Calls come from the whole dose curve; as a rule, active = well fitted inhibition curve with a large enough effect; inconclusive = small, poorly fitted or top-dose-only effect; inactive = no such curve, though single readings can be large or run the other way. Potencies of inconclusive entries are left out as doubtful fits.
# Biological target: Glucagon-like peptide 1 receptor (Homo sapiens) (UniProt P43220)
# Chain of UniProt P43220 (P43220 whole entry, looked up): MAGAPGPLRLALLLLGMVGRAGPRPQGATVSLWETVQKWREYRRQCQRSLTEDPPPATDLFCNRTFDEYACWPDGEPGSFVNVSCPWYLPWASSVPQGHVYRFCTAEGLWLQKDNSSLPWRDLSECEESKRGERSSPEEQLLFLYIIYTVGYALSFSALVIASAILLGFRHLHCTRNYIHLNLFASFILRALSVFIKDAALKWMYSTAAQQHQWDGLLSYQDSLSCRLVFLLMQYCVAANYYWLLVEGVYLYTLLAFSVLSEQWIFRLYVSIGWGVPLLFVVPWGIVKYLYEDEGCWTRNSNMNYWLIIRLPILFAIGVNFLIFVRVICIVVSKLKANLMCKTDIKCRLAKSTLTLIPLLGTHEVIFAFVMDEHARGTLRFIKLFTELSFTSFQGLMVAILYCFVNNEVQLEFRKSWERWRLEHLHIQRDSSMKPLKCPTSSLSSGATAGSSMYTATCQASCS
# Assay: qHTS of GLP-1 Receptor Inverse Agonists (Inhibition Mode); note: nearly all actives have a fitted effect of over 55% in size
# Settings: HEK293 GLP-1R CRE-luciferase, luminescence, 24 h, GLP-1R form is constitutively active; activity change, negative = inhibition: at 38.3 µM (top of the series) unless noted
# Summary of the method: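 Inverse agonism was detected as reduced cAMP-driven luciferase luminescence after 24 h compound treatment. The cells were HEK293 clones expressing constitutively active human GLP-1R with the reporter. Reporter-only and GPR119 cell lines served as counterscreen controls.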
# % is set by controls: 0 for no effect and ±100 for the full control effect; potency is the fitted concentration of half-maximal effect; tags give direction and shape of the fitted curve.
SMILES,Potency,"activity change, negative = inhibition"
O=C1[C@H]2[C@@H](c3ccc(F)cc3)N3C(=O)N(c4ccc(Br)cc4)C(=O)[C@@]3(Cc3ccccc3)[C@H]2C(=O)N1C1CCCCC1,"inconclusive [inhibitor, full curve, poor fit]",
Cc1cc(C)c(Cn2cnc3ccccc32)c(C)c1,"inconclusive [inhibitor, single point]",
Cc1ccc([N+](=O)[O-])cc1S(=O)(=O)NCCc1c(C)[nH]c2ccccc12,"inconclusive [inhibitor, partial curve]",
CN(C)CCOc1ccc(/C(=C(/CCCl)c2ccccc2)c2ccccc2)cc1,,inactive: 4.95%
COC(=O)c1c(C)oc2ccc(N(C(=O)c3ccncc3)S(=O)(=O)c3ccc(Br)cc3)cc12,"inconclusive [inhibitor, single point]",
COc1ccc(CNC(=O)c2nn(C)c3c2CSc2ccccc2-3)cc1,"inconclusive [inhibitor, single point]",
COc1ccc(CNS(=O)(=O)c2ccc(-c3cc(C(F)(F)F)on3)s2)cc1OC,"inconclusive [inhibitor, partial curve, poor fit]",
COc1c(C)cc(Br)cc1C(=O)NC(=S)NCc1ccco1,"inconclusive [inhibitor, single point]",
Oc1ccc(N2CCN(c3nnnn3-c3ccccc3)CC2)cc1,"inconclusive [inhibitor, full curve, poor fit]",
Cc1cc(NC(=O)CSc2nc3ccccc3cc2C#N)no1,,inactive: 10.3%
Cc1nc(C(=O)O)nn1-c1ccc([N+](=O)[O-])cc1,,inactive: 7.74%
Cc1ccc(NC(=O)Cn2cc3c(n2)CCCC3)cc1Cl,"inconclusive [inhibitor, partial curve, poor fit]",
Cc1ccc(/C=N/NC(=O)C2CCN(Cc3ccc(F)cc3Cl)CC2)o1,"inconclusive [inhibitor, partial curve]",
COc1ccc(OC)c(CN2CCC(CO)(CCOc3ccccc3)CC2)c1,"inconclusive [inhibitor, single point]",
CCN(CC)CCOC(=O)c1ccc(NC(=O)CCCN2C(=O)/C(=C/c3cccs3)SC2=S)cc1,"inconclusive [inhibitor, partial curve, poor fit]",
CCc1cc(C)cc(OCCOc2ccccc2/C=N/NC(C)=O)c1,"inconclusive [inhibitor, single point]",
O=C(CCN1C(=O)[C@H]2CC=CC[C@H]2C1=O)NCc1nc(-c2ccc(Cl)cc2)no1,"inconclusive [inhibitor, partial curve]",
CC(CN1CCCCC1)OC(=O)c1ccc(Cl)cc1Cl (stereo unspecified),,inactive: -0.18%
O=C(NCCc1cccc(Cl)c1)c1cccc([N+](=O)[O-])c1,"inconclusive [inhibitor, single point]",
Cc1cc(C)c(S(=O)(=O)c2ccccc2)c(OC(=O)c2ccc(Cl)cc2Cl)n1,"inconclusive [inhibitor, partial curve, poor fit]",
COc1cccc(C(=O)NCCS(=O)(=O)NCc2ccc(Cl)cc2)c1,"inconclusive [inhibitor, partial curve, poor fit]",
O=C(CN1CCc2ccccc21)NC(c1ccccc1)c1ccccc1,"inconclusive [inhibitor, single point]",

SMILES,Potency,"activity change, negative = inhibition"
COc1ccc(-c2nc3c4ccccc4ccn3c2Cc2cccc(F)c2)cc1OC,"inconclusive [inhibitor, single point]",
CCOC(=O)Nc1ccc2c(c1)N(C(=O)CCN1CCN(C)CC1)c1ccccc1S2,"inconclusive [inhibitor, single point]",
CC1CC(C)CN(S(=O)(=O)N2CCCC(C(=O)NCCc3ccccc3)C2)C1 (stereo unspecified),"inconclusive [inhibitor, full curve, poor fit]",
O=C(NC1CCCC1)C(c1ccc(Cl)cc1)N(Cc1ccc(F)cc1)C(=O)CCl (stereo unspecified),"inconclusive [inhibitor, partial curve]",
Cc1ccccc1NNC(=O)C(=O)NNc1ccccc1C,"inconclusive [inhibitor, full curve, poor fit]",
O=S(=O)(NC1CCCCC1N1CCN(c2ccc(F)cc2)CC1)c1ccc(Cl)cc1 (stereo unspecified),"inconclusive [inhibitor, single point]",
CCn1cnc2cc(NC(=O)COc3ccc(C)cc3)ccc21,"inconclusive [inhibitor, single point]",
O=C(OCC(=O)c1c[nH]c2ccccc12)c1ccc(Br)o1,,inactive: 4.21%
CCN1CCCC1CNC(=O)c1ccc2c(c1)NC(=O)/C(=C\c1ccc(C)cc1)S2 (stereo unspecified),"inconclusive [inhibitor, partial curve, poor fit]",
COC(=O)c1[nH]c2ccc(C)cc2c1NC(=O)CN1CCN(Cc2ccccc2)CC1,"inconclusive [inhibitor, partial curve, poor fit]",
CCOC(=O)c1c(-c2ccccc2)oc2ccc(OCc3ccccc3Br)cc12,,inactive: 9.77%
O=C1c2ccccc2NC(c2ccc(F)cc2)N1Cc1ccco1 (stereo unspecified),"inconclusive [inhibitor, single point]",
CC(=O)Oc1c(I)cc(I)cc1C(=O)Nc1ccc(Cl)cc1,"inconclusive [inhibitor, single point]",
CCOc1ccc(N/C(N)=N/c2nc(CSc3nnc(C)s3)cc(=O)[nH]2)cc1,"inconclusive [inhibitor, full curve, poor fit]",
O=C(NC1CCCc2ccccc21)c1ccc2c(c1)OCO2 (stereo unspecified),"inconclusive [inhibitor, single point]",
COc1cc(OC)c(NS(=O)(=O)c2ccc3c(c2)NC(=O)CO3)cc1Cl,"inconclusive [inhibitor, single point]",
Fc1cccc(CN2CCc3nc(Nc4ccc5c(c4)OCCO5)ncc3C2)c1F,"inconclusive [inhibitor, partial curve, poor fit]",
CCOc1cc(C)c(C(C)C)cc1S(=O)(=O)n1ccc(C)n1,"inconclusive [inhibitor, single point]",
Cc1ccccc1S(=O)Cc1ccc(C(=O)NCc2ccccc2Cl)o1 (stereo unspecified),,inactive: -21.5%
COCCn1nnnc1CN1CCN(c2cccc(C(F)(F)F)c2)CC1,,inactive: 0.0138%
COCCN(C(=S)Nc1ccc(C)c(C)c1)C(C)c1ccco1 (stereo unspecified),"inconclusive [inhibitor, partial curve, poor fit]",
COC(=O)Nc1nc2ccc(SC(C)C)cc2[nH]1,"inconclusive [inhibitor, full curve, poor fit]",

SMILES,Potency,"activity change, negative = inhibition"
Clc1ccc2nc(-c3ccccc3)cn2c1,"inconclusive [inhibitor, single point]",
CN(CC(=O)Nc1cccc(S(=O)(=O)N(C)c2ccccc2)c1)Cc1cccs1,"inconclusive [inhibitor, partial curve, poor fit]",
Cc1cc(C)n2ncc(C(=O)NCc3ccccc3)c2n1,,inactive: 87.9%
CCc1nc2nc(C)c(NS(=O)(=O)c3ccc(Br)s3)c(=O)n2[nH]1,,inactive: 5.98%
CC(=O)N1CCN(c2csc3ccc(Cl)cc3c2=O)CC1,,inactive: 11.3%
CC(C)(C)n1nnnc1C(c1ccccc1F)N(Cc1ccco1)CC1CCCO1 (stereo unspecified),"inconclusive [inhibitor, single point]",
Cc1ccc(NC(=O)c2ccc(OCc3c(C)noc3C)cc2)cc1C,"inconclusive [inhibitor, partial curve, poor fit]",
CC(C)(C)C(=O)Nc1sc2c(c1-c1nc3ccccc3[nH]1)CCCC2,,inactive: -9.78%
CN(C)Cc1nc2ccccc2c(=O)n1Cc1nc(C(C)(C)C)cs1,"inconclusive [inhibitor, partial curve, poor fit]",
O=C1CC(C(F)(F)C(F)(F)C(F)(F)C(F)(F)F)=Nc2ccccc2N1,"inconclusive [inhibitor, partial curve, poor fit]",
Clc1cccc(CNCCCSc2nnnn2-c2ccccc2)c1,"inconclusive [inhibitor, single point]",
CCNC(=S)NS(=O)(=O)c1ccc(C)cc1,,inactive: 26.5%
CCc1ccc(C(=O)Cn2ccsc2=N)cc1,"inconclusive [inhibitor, single point]",
Cc1ccccc1Nc1c(-c2c[nH]c3ccccc23)nc2ccc(Cl)cn12,,inactive: -8.52%
COc1cc(OC)cc(C(=O)NNC(=O)c2ccccn2)c1,"inconclusive [inhibitor, single point]",
Cc1ccc(Cl)c(Nc2ccccc2C(=O)O)c1Cl,inactive,
Cc1ccc(OCCC(=O)N(CC(=O)Nc2ccccc2C(F)(F)F)Cc2ccco2)cc1,"inconclusive [inhibitor, partial curve, poor fit]",
Cc1cc(Cl)c(OCCCNCc2ccccc2)c(Br)c1,,inactive: 0%
COc1cc(NC(=O)CC(C)C)ccc1NC(=O)c1ccco1,,inactive: 1.55%
COC[C@@H]1CCCN1c1ccc2c(c1)O[C@@H](COCc1ccccc1)CN([C@@H](C)c1ccccc1)S2(=O)=O,"inconclusive [inhibitor, partial curve]",
COc1cccc(CN(C(=O)Cc2c[nH]c3ccccc23)C(C(=O)NC2CCCCC2)c2ccc(C)o2)c1 (stereo unspecified),"inconclusive [inhibitor, partial curve, poor fit]",
COc1cc(CCC(=O)Nc2ncc(C)s2)cc(OC)c1OC,"inconclusive [inhibitor, single point]",

# — PubChem BioAssay AID624417 (National Center for Advancing Translational Sciences (NCATS), 2012)
